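Grown in 96-well plates, cells were treated for 48 hours with each compound at five concentrations. Insufficient inhibition: endpoint recorded as highest concentration tested. GI50: concentration for 50% inhibition of growth.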 Activity calls are given as the source filed them. No stated cut-off is given here; in the data, active = GI50 up to about 1.1 µM and inactive = higher.
test system: NCI-H322M; experiment: NCI anticancer screen, dose series, 48 h

How did the GI50 turn out when `Cc1cc(NS(=O)(=O)c2ccc(NC(NC(=O)C(C(F)(F)F)C(F)(F)F)(C(F)(F)F)C(F)(F)F)cc2)no1` was run?
Its GI50 is inactive: > 100 µM.

Which GI50 does the source give for `CCOC(=O)C1=C(C)N(c2ccc(C)cc2)C2=C(C(=O)N(c3ccccc3)C2c2ccccc2)C1c1ccccc1` (configuration not stated) here?
The GI50 was inactive: > 25 µM.

Which GI50 does the source give for `CC1OC(OC2C(OC(=O)[C@@H]3CC(C)(C)C[C@@H]4C5=CC[C@@H]6[C@@]7(C)C[C@H](O)[C@H](OC8OC(CO)C(O)C(O)C8O)[C@@](C)(CO)C7[C@H](O)C[C@@]6(C)[C@]5(C)C[C@@H](O)[C@H]43)OCC(O)C2O)C(O)C(O)C1O` (some centres not stated) here?
Its GI50 is inactive: > 15 µM.

`CC(C)OC(=O)C(NC(=O)C(CC(=O)OCc1ccccc1)NC(=O)OCc1ccccc1)NC(=O)C1C(C)(C)CCC1(C)C` (configuration not stated) was tested. Which GI50 did it give?
Its GI50 is inactive: 28.9 µM.

For `CN(C)CC1CCC(CN(C)C)C1=O` (configuration not stated), which GI50 is on record?
The GI50 was inactive: 19.1 µM.

For `C=C(CCC(C(=O)O)C1CCC2(C)C3=C(CCC12C)C1(C)CCC(O)C(C)(C)C1CC3)C(C)C` (configuration not stated), which GI50 is on record?
Its GI50 is inactive: 36 µM.

For `CC(C)OP(=O)(OC(C)C)c1nc(-c2ccccc2)n(-c2ccc([N+](=O)[O-])cc2)n1`, which GI50 is on record?
The GI50 was inactive: > 100 µM.

Which GI50 does the source give for `O=Cn1c2ccccc2c2ccccc21` here?
Its GI50 is inactive: > 100 µM.

Which GI50 does the source give for `O=c1nc(N2CCCC2)nc(N2CCCC2)s1` here?
Its GI50 is inactive: > 100 µM.

For `Cc1ccc(-n2cnc(C(=N)C#N)c2N)cc1`, which GI50 is on record?
Its GI50 is inactive: 27.6 µM.

With `CC(=O)O/C=C1/C[C@H]2[C@@H]3CCC4CC(C(C)=O)CC[C@]4(C)[C@H]3CC[C@]2(C)C1=O` (some centres not stated) as the compound, how does the GI50 read?
Its GI50 is inactive: 60.5 µM.

How did the GI50 turn out when `C#CC(O)/C=C/CCCCCCC#CC/C=C\CC#CCCCCCC/C=C/C(O)C#C` (configuration not stated) was run?
The GI50 was inactive: 5.61 µM.

Which GI50 does the source give for `COc1c(CC(=O)c2ccccc2)c2ccccc2n1C(C)=O` here?
The GI50 was inactive: > 100 µM.

`Cc1cccc(/N=N/c2ccc(O)c(CN(C)C)c2)c1` was tested. Which GI50 did it give?
The GI50 was inactive: 36.5 µM.

`Cc1cc2c(cc1C)NC(=O)C(NC(=O)/C=C/c1ccccc1)C=N2` (configuration not stated) was tested. Which GI50 did it give?
The GI50 was inactive: > 100 µM.

How did the GI50 turn out when `O=c1[nH]n(Cc2ccccn2)c2ccc([N+](=O)[O-])cc12` was run?
Its GI50 is inactive: > 100 µM.

How did the GI50 turn out when `Cc1ccccc1N/N=C1\C(=O)Nc2ccccc21` was run?
The GI50 was inactive: > 100 µM.

With `COC(=O)C(Cc1nc2ccccc2nc1O)C(=O)C(=O)Nc1ccc(OC)cc1[N+](=O)[O-]` (configuration not stated) as the compound, how does the GI50 read?
The GI50 was inactive: > 100 µM.

For `COc1cc([C@@H]2c3[nH]c4ccccc4c3C(Nc3ccc([N+](=O)[O-])cc3)[C@H]3COC(=O)N23)cc(OC)c1O` (some centres not stated), which GI50 is on record?
The GI50 was active: 1.1 µM.

`CC(=O)OCc1ccc2c(c1)C(O)NC(=O)O2` (configuration not stated) was tested. Which GI50 did it give?
The GI50 was inactive: 35.8 µM.

`[N-]=[N+]=Nc1ccc2c(c1)Sc1ccccc1N2CCCCN1CCN(C(=O)CCNC(=O)Cc2ccc(C(=O)c3ccccc3)cc2)CC1` was tested. Which GI50 did it give?
Its GI50 is inactive: 5.26 µM.

How did the GI50 turn out when `O=C1NC(=O)C(C(CC(=O)c2ccc([N+](=O)[O-])cc2)c2ccccc2)C(=O)N1` (configuration not stated) was run?
Its GI50 is inactive: 2.68 µM.

`C[C@H]1S[C@H](c2c(Cl)cccc2Cl)N2Cc3ccccc3N=C12` was tested. Which GI50 did it give?
Its GI50 is inactive: 10.7 µM.

Which GI50 does the source give for `O=S(=O)(c1ccccc1)n1c2ccc(Br)cc2c2nc3ccccc3nc21` here?
Its GI50 is inactive: > 100 µM.

How did the GI50 turn out when `Cc1cc(N(CCC#N)CCC#N)ccc1/C=C1N=C(/C=C\c2ccccc2)N(c2ccc(C(=O)O)cc2)C\1=O` was run?
Its GI50 is inactive: > 100 µM.

Which GI50 does the source give for `NC(=S)N/N=C1\CC(c2ccccc2)Nc2ccccc21` (configuration not stated) here?
Its GI50 is inactive: 63.2 µM.

For `COc1c(C)c(C/C=C(\C)CC/C=C(\C)CC/C=C(\C)CC/C=C(\C)CCC=C(C)C)c(OC)c(OC)c1OC`, which GI50 is on record?
The GI50 was inactive: > 100 µM.

With `Cc1ccccc1NC(=O)CC1C(=O)Nc2ccccc2[S+]1[O-]` (configuration not stated) as the compound, how does the GI50 read?
Its GI50 is inactive: > 100 µM.

Which GI50 does the source give for `O=c1ccn(C2OC(CO)C(O)C2[Se]c2ccccc2)c(=O)[nH]1` (configuration not stated) here?
The GI50 was inactive: > 100 µM.

With `COc1cc2c(cc1O)CN1CCC23C=C[C@@H](O)CC13` (some centres not stated) as the compound, how does the GI50 read?
Its GI50 is inactive: 36.9 µM.

With `C[C@@H](c1ccccc1)N(CC#N)C1CCC[C@H]1O` (some centres not stated) as the compound, how does the GI50 read?
The GI50 was inactive: > 100 µM.

Which GI50 does the source give for `Cc1cc(N(C)C)c2ccccc2[n+]1CCCCCCCCCC[n+]1c(C)cc(N(C)C)c2ccccc21.[O-][Cl+3]([O-])([O-])[O-].[O-][Cl+3]([O-])([O-])[O-]` here?
The GI50 was inactive: 3.09 µM.
